# According to PubChem BioAssay AID504333 (National Center for Advancing Translational Sciences (NCATS), 2011):
# The whole screen tested about 360,000 compounds, of which about 16,000 (4.4%) were called active. Inconclusive results, whose numbers are uncertain, are shown with a selection of clear calls. Calls come from the whole dose curve; as a rule, active = well fitted inhibition curve with a large enough effect; inconclusive = small, poorly fitted or top-dose-only effect; inactive = no such curve, though single readings can be large or run the other way. Potencies beside an inconclusive call are fits to weak or partial responses and may not hold up.
# Molecular target: Bromodomain adjacent to zinc finger domain protein 2B (Homo sapiens) (UniProt Q9UIF8)
# Assay: qHTS Assay for Inhibitors of BAZ2B; note: nearly all actives have a fitted effect of over 60% in size
# Conditions: AlphaScreen BAZ2B-H3K14Ac peptide displacement; activity change, negative = inhibition: at 114 µM (top of the series)
# How it was run: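 Inhibition is scored as reduced AlphaScreen emission. The BAZ2B/b-H3(5-23)K14Ac complex (50 nM each) in PBS pH 7.4, 0.01% Tween-20 meets compound (up to 110 uM) for 30 min at RT before bead addition.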
# % is set by controls: 0 for no effect and ±100 for the full control effect; potency is the fitted concentration of half-maximal effect; tags give direction and shape of the fitted curve.
# Sequence of UniProt Q9UIF8 (Q9UIF8 whole entry, looked up, the tested form may be a part): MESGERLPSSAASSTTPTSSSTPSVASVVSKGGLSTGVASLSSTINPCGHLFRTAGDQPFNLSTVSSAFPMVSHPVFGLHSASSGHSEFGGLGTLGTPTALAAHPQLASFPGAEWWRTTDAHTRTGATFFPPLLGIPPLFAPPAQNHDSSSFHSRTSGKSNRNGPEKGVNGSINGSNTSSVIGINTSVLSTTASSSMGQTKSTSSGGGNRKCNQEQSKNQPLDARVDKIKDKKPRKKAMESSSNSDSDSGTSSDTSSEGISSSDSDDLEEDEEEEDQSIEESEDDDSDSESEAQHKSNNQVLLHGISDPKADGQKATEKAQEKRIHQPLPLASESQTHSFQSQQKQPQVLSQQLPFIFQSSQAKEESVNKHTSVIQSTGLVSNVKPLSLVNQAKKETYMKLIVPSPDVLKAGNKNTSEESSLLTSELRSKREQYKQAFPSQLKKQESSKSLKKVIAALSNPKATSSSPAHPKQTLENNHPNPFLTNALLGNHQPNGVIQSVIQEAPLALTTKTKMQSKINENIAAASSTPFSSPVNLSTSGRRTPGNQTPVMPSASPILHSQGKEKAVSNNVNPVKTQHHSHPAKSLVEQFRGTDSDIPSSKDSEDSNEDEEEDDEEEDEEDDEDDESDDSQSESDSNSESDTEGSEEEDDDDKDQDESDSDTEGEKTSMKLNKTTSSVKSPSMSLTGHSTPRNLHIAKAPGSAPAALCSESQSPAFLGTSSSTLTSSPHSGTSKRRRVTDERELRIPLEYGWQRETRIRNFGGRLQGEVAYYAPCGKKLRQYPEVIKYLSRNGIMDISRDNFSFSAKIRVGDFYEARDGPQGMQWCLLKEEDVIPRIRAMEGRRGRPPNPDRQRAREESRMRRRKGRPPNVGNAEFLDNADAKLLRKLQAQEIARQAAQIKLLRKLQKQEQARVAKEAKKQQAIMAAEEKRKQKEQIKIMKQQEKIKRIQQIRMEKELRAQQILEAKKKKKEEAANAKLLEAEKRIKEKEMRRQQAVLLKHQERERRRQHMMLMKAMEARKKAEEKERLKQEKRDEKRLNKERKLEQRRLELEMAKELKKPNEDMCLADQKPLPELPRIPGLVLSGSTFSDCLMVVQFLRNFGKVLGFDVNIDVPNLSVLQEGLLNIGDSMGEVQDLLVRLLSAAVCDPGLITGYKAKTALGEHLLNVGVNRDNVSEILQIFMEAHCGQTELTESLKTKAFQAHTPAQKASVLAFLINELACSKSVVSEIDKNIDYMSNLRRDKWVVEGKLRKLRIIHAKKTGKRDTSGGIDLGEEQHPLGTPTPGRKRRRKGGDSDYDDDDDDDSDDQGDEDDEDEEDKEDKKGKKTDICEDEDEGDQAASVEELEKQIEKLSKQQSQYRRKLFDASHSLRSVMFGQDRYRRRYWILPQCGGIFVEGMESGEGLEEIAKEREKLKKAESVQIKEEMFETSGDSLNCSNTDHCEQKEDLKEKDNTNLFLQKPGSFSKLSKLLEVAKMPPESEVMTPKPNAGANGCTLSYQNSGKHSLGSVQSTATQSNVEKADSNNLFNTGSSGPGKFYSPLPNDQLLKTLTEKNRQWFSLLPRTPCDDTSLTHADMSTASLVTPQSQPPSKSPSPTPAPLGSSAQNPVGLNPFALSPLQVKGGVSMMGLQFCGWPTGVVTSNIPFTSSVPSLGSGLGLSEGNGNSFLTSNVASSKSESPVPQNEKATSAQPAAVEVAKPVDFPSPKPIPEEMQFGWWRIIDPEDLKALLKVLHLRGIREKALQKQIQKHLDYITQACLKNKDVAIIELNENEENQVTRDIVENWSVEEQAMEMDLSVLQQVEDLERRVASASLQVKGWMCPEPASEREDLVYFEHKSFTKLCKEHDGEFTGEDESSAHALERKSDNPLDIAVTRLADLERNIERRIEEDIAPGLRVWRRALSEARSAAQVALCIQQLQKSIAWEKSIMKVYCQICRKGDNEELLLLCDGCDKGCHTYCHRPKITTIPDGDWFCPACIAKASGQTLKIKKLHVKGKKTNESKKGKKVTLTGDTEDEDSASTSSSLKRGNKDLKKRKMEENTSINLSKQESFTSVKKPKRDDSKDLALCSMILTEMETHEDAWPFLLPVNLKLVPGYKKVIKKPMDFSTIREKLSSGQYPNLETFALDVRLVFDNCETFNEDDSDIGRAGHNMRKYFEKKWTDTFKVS
SMILES,Potency,"activity change, negative = inhibition"
COc1ccc(Cl)cc1Nc1sc(C(=O)c2ccccc2)c(N)c1C(=O)Nc1ccccc1,"inconclusive: 44.7 µM [inhibitor, partial curve]",
N#CCc1ccc(NC(=O)/C=C/c2ccc([N+](=O)[O-])o2)cc1,"inconclusive: 50.1 µM [inhibitor, partial curve]",
Cc1cc(=O)[nH]c(CN2CCOCC2)n1,"inconclusive: 89.1 µM [inhibitor, single point]",
S=C(N/N=C/c1cccc2ccccc12)Nc1cccc(Cl)c1,active: 79.4 µM,
COc1ccc(OC)c(/C=C2\SC(=S)N(Cc3cccnc3)C2=O)c1,"inconclusive: 79.4 µM [inhibitor, partial curve, poor fit]",
Cc1cc(C)nc(Nc2n[nH]c(-c3ccccc3N)n2)n1,"inconclusive: 89.1 µM [inhibitor, single point]",
CC(C)(C)c1nc(N2CCN(C(=O)c3ccco3)CC2)c2nnn(Cc3ccccc3)c2n1,"inconclusive: 25.1 µM [inhibitor, single point]",
Cc1cccc(-c2nc(S(=O)(=O)c3ccc(F)cc3)c(N3CCN(c4ccccc4)CC3)o2)c1,"inconclusive: 2.82 µM [inhibitor, partial curve, poor fit]",
CN(Cc1ccc(F)cc1)C(=O)c1sccc1-c1ccccc1,"inconclusive: 79.4 µM [inhibitor, single point]",
CCN(CC(=O)NCc1cccs1)CC(=O)Nc1c(Cl)ccc(C)c1Cl,,inactive: 6.63%
Cc1cccc(C)c1NC(=O)CCCn1nc(C)c2c(C)n(-c3ccccc3)nc2c1=O,"inconclusive: 89.1 µM [inhibitor, single point]",
CCC1CCCCN1CCCCOc1cccc(Cl)c1 (centres undefined),"inconclusive: 89.1 µM [inhibitor, single point]",
CCOC(=O)C1CCCN(C(=O)c2ccc3c(c2)N(Cc2ccccc2)C(=O)c2ccccc2S3(=O)=O)C1 (centres undefined),"inconclusive: 89.1 µM [inhibitor, single point]",
Cc1cc(-c2ccc(C(=O)O)s2)cnc1N,"inconclusive: 89.1 µM [inhibitor, single point]",
O=C(CSc1nnc(-c2cccnc2)o1)Nc1nccs1,"inconclusive: 89.1 µM [inhibitor, single point]",
CN(C)S(=O)(=O)N(CC(=O)N(Cc1ccccc1)Cc1ccccc1)c1ccccc1,active: 56.2 µM,
N#Cc1c(NC(=O)c2cccc(S(=O)(=O)Nc3ccc(C(=O)O)cc3)c2)sc2c1CCCC2,active: 56.2 µM,
Cn1cc(S(=O)(=O)c2ccc(Cl)cc2)c(=O)c2cc(F)c(N3CCCCCC3)cc21,,inactive: -0.482%
O=C(O)c1ccc(CN2C(=O)CSC2=S)cc1,"inconclusive: 50.1 µM [inhibitor, partial curve]",
Cc1ccc(C)c(N2CCN(C(=O)C3CCN(c4nc(-c5ccc(C(C)C)cc5)no4)CC3)CC2)c1,,inactive: -0.196%
Clc1ccc(N2CCOCC2)nn1,,inactive: -12.1%
Cc1ncc(CCl)c2c1OC(C)(C)OC2,active: 50.1 µM,
C=C(C)C1CC=C(CN2CC(C)OC(C)C2)CC1 (centres undefined),"inconclusive: 89.1 µM [inhibitor, single point]",
CC1=C(CC(=O)c2ccc(Cl)cc2)C(=O)c2ccccc2C1=O,active: 31.6 µM,
c1ccc2c(c1)CCCN2Cc1nnnn1C1CCCC1,"inconclusive: 3.55 µM [inhibitor, single point]",

SMILES,Potency,"activity change, negative = inhibition"
Cc1cccc(NC(=O)C(Cc2ccccc2)n2cccc2)c1 (centres undefined),"inconclusive: 79.4 µM [inhibitor, partial curve]",
CCC(=O)N1c2ccccc2-c2nnc(SC)nc2OC1c1ccc(N(C)C)cc1 (centres undefined),"inconclusive: 79.4 µM [inhibitor, single point]",
CCN(CC)c1ccc(/C=N/NC(=O)c2ccoc2C)cc1,"inconclusive: 50.1 µM [inhibitor, partial curve]",
Cc1ccc(C2C(C#N)=C(N)Oc3c2sc2ccccc32)o1 (centres undefined),"inconclusive: 79.4 µM [inhibitor, single point]",
N#Cc1cc(-c2ccccc2)oc1NC(=O)c1ccco1,"inconclusive: 89.1 µM [inhibitor, single point]",
Cn1cc(S(=O)(=O)c2cccc(Cl)c2)c(=O)c2cc(F)c(N3CCCCCC3)cc21,,inactive: 3.1%
O=C(Nc1cccc(Cl)c1)Nc1ccccc1C(=O)NCc1ccco1,"inconclusive: 70.8 µM [inhibitor, single point]",
Cc1cc(C(=O)O)ccc1-c1ccc(/C=C2\SC(=O)N(CC(=O)Nc3ccc4c(c3)OCO4)C2=O)o1,active: 17.8 µM,
CCCCN1C(=S)NC[C@@H]1Cc1cccc2ccccc12,"inconclusive: 70.8 µM [inhibitor, single point]",
CN1/C(=C\C=N\NC(=O)c2ccc(O)cc2)C(C)(C)c2ccccc21,"inconclusive: 39.8 µM [inhibitor, full curve]",
N#C/C(N=Nc1ccccc1O)=N\Nc1ccccc1O,active: 11.2 µM,
C/C(=N\Nc1cc(C)nc(NCc2ccccc2)n1)c1cccc([N+](=O)[O-])c1,"inconclusive: 79.4 µM [inhibitor, single point]",
COc1ccc(Cn2c(C)nc([N+](=O)[O-])c2SCC(=O)O)cc1[N+](=O)[O-],,inactive: -15.1%
CCOC(=O)CSC1=C(C#N)C(c2ccc3c(c2)OCO3)CC(=O)N1 (centres undefined),,inactive: -0.49%
Cc1cccc(-n2c(CNC(=O)Cc3ccccc3)n[nH]c2=S)c1,,inactive: -13.9%
Cc1nc2c(-c3ccc(Cl)cc3)c(C)[nH]n2c(=O)c1Cc1ccccc1,,inactive: 3.59%
O=C(Nc1ccc(Cl)cc1)C1CCN(c2nc3ccccc3nc2C(F)(F)F)CC1,,inactive: -1.25%
Fc1ccc(NC(=S)Nc2cccc3ccccc23)cc1,"inconclusive: 89.1 µM [inhibitor, single point]",
C/C(=C\c1ccccc1)CN1CCC(C(=O)N2CCC(C)CC2)CC1,"inconclusive: 89.1 µM [inhibitor, single point]",
Cc1ccc(S(=O)(=O)c2nc(-c3ccc(F)cc3)oc2N2CCN(c3ccccc3)CC2)cc1,"inconclusive: 3.98 µM [inhibitor, full curve]",
CCN(CC)c1ccc(C2Nc3ccccc3-c3cc(C)nn32)cc1 (centres undefined),"inconclusive: 39.8 µM [inhibitor, partial curve]",
CCN1CCCC1CNC(=O)C(=O)Nc1ccc(OC)cc1 (centres undefined),,inactive: -7.71%
Cc1nn(-c2ccccc2)c2c1N(CC(=O)N1CCN(c3ccccc3F)CC1)C(=O)CS2,"inconclusive: 89.1 µM [inhibitor, single point]",
COc1ccc(N2CCC(CNC(=O)Nc3ccc(C)c(C)c3)C2)cc1 (centres undefined),active: 39.8 µM,
O=C(Nc1ccc(F)cc1)c1nc[nH]c1C(=O)O,active: 4.47 µM,

SMILES,Potency,"activity change, negative = inhibition"
C/C(Cn1nnc([N+](=O)[O-])n1)=N\NC(=O)c1ccncc1,"inconclusive: 79.4 µM [inhibitor, single point]",
COc1ccc(NC(=O)CN(C)C(=O)c2ccc(=O)[nH]c2)cc1,,inactive: -15.1%
CC(=O)c1ccc(N2CCN(C(=O)c3cccc(Oc4ccccc4)c3)CC2)cc1,,inactive: -21.9%
COc1ccccc1C(CCN(Cc1cccs1)C(C)=O)c1ccco1 (centres undefined),active: 79.4 µM,
CC1CCCC(C)N1CC(C)(C)NS(=O)(=O)c1ccc(Cl)cc1 (centres undefined),active: 50.1 µM,
COc1ccc(-n2c(SCC(=O)NCc3ccccc3)nc3c([nH]c4ccccc43)c2=O)cc1,,inactive: -1.61%
CCN1C(=O)/C(=C\c2nc3ccccc3c(=O)n2-c2ccccc2)c2ccccc21,active: 50.1 µM,
CC1CCN(c2nc(Cl)nc(Nc3ccc([N+](=O)[O-])cc3)n2)CC1,"inconclusive: 35.5 µM [inhibitor, partial curve]",
O=c1[nH]c2cc3c(cc2cc1C(c1nnnn1C1CCCC1)N1CCSCC1)OCCO3 (centres undefined),,inactive: 0.145%
CC(C)(C)c1ccc(C(=O)NCCCNC(=O)c2ccccn2)cc1,,inactive: -0.46%
O=C(CCC1N=C2c3ccccc3N=C(SCC(=O)Nc3ccc(F)cc3)N2C1=O)NCc1ccco1 (centres undefined),,inactive: 2.88%
CCN(CC)c1ccc(NC(=O)COC(=O)CSc2ccc(Br)cc2C)cc1,active: 10 µM,
O=C(CN1CCN(S(=O)(=O)c2ccc(Cl)cc2)CC1)N1CCCC1,,inactive: -6.28%
CCOC(=O)Cc1csc(SCC(=O)NC2CCCCC2)n1,,inactive: -4.21%
C[n+]1cn(CC(O)COCc2ccccc2)c2ccccc21 (centres undefined),"inconclusive: 89.1 µM [inhibitor, single point]",
COc1cc(/C=N/N2CCN(Cc3ccc(Cl)cc3)CC2)cc(Br)c1O,active: 50.1 µM,
COc1ccc(/C=N/NC(=O)C[n+]2ccccc2)c(OC)c1OC,"inconclusive: 89.1 µM [inhibitor, single point]",
COc1ccc(Nc2cc(C(=O)NCc3cccnc3)c3ccccc3n2)c(OC)c1,"inconclusive: 56.2 µM [inhibitor, partial curve, poor fit]",
O=C1/C(=C/c2cccs2)SC(=S)N1CCC(=O)N1CCCCC1CCO (centres undefined),active: 22.4 µM,
Cc1ccc(-c2c(C)c(-c3ccc(F)cc3)nc(N)c2C#N)o1,,inactive: 19.6%
Cc1ccc(-c2noc(CSc3nnc(-c4ccncc4)n3-c3ccc(C)cc3)n2)cc1,"inconclusive: 89.1 µM [inhibitor, single point]",
CC(Sc1nnc(Cc2ccccc2)o1)C(=O)Nc1ccccc1[N+](=O)[O-] (centres undefined),,inactive: -18.9%
COc1ccc(N2C(=O)C(Cl)=C(N(CCO)Cc3ccccc3)C2=O)cc1,"inconclusive: 70.8 µM [inhibitor, partial curve]",
O=C(NC(NC(=S)Nc1ccccc1C(=O)O)C(Cl)(Cl)Cl)c1ccccc1 (centres undefined),"inconclusive: 79.4 µM [inhibitor, single point]",
